Experimental data taken from PubChem BioAssay AID1159614 (National Center for Advancing Translational Sciences (NCATS), 2016).
Out of some 45,000 compounds screened, about 65 (0.1%) were called active. Calls follow the shape of the dose curve; as a rule, active = well fitted activation curve with a large enough effect; inconclusive = small, poorly fitted or top-dose-only effect; inactive = no such curve, though single readings can be large or run the other way. The list shows a part of the results.

Molecular target: Galactocerebrosidase (Homo sapiens) (UniProt P54803)
Sequence of UniProt P54803 (P54803 whole entry, looked up): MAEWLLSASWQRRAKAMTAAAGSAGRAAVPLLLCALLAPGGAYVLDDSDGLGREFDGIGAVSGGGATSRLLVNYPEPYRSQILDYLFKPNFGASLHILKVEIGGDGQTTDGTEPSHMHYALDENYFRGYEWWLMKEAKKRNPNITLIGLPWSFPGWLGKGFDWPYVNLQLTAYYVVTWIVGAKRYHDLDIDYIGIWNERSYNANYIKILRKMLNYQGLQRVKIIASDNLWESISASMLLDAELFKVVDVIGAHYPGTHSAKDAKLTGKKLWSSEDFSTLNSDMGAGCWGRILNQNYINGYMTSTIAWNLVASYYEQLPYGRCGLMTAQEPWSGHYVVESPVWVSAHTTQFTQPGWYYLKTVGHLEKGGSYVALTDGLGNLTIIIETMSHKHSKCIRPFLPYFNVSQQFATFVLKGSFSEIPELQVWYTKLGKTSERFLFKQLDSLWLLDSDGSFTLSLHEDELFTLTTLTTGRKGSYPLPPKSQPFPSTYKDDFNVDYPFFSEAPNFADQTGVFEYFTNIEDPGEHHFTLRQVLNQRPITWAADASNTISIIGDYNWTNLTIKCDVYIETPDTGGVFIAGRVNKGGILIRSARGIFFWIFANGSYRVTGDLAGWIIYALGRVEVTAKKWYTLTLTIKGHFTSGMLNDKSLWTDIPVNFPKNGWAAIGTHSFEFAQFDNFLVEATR
Assay: A Novel Cell-Based Assay to Identify Small Molecules for B -Galactocerebrosidase; also: 0% is about no effect; nearly all actives have a fitted effect of over 65% in size
Details: 145M-Twi-hGALC-G270D cells (Twitcher mouse brain line with human GALC G270D), HMU-beta-Gal fluorescence, 48 h; series mostly up to 57.5 µM; activation: at the top concentration
Procedure, shortened: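 Live 145M-Twi cells (Twitcher mouse brain-derived, GALC-null) stably expressing human GALC-G270D, with a wild-type GALC line, were compound-treated. Residual GALC activity was then read as fluorescence from 0.1 mM final HMU-β-gal at pH 5.2; higher signal means activation.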

Structure (SMILES) | activation
COc1ccccc1CNC(=O)CCCCn1c(=O)c2ccccc2n(CC(=O)Nc2c(C)cc(C)cc2C)c1=O | inactive: -6.57%
COc1ccccc1Cc1nc2ccccc2nc1SCC(=O)Nc1ccc2c(c1)OCO2 | inactive: -9.98%
CCOc1ccccc1CNC(=O)CCC(=O)N1CCSc2ccccc21 | inactive: 6.34%
COc1ccc(OC)c(NC(=O)Cn2c(=O)n(Cc3ccco3)c(=O)c3cc(OC)c(OC)cc32)c1 | inactive: -11.5%
Cc1ccc(C)c(NC(=O)C(Cc2ccccc2)n2cccc2)c1 (stereo unspecified) | inactive: -8.13%
Cc1ccc(C(=O)Nc2ccc(-c3nc4ccccc4o3)cc2)cc1Cl | inactive: -16.7%
Brc1ccc(Nc2c3c(nc4nncn24)CCC3)cc1 | inactive: -8.64%
Cc1cc(C)cc(-n2c(SCC(=O)Nc3cccc(F)c3)nc3c([nH]c4ccccc43)c2=O)c1 | inactive: -4.15%
COc1ccc2c(c1)c1c(c(=O)n(Cc3ccccc3)c(=O)n1Cc1ccccc1Cl)n2C | inactive: -10.4%
COc1ccc(OCC(=O)Nc2c(C(=O)N3CCN(c4ccccc4)CC3)oc3ccccc23)cc1 | inactive: -25.4%
CCc1ccc(NC(=O)C2=C(C)C(=O)OC23CCCCC3)cc1 | inactive: -16.2%
Cc1ccc(NC(=O)C2CCC(CNS(=O)(=O)c3ccc4c(c3)CCCC(=O)N4)CC2)cc1F (stereo unspecified) | inactive: 1.65%
COCCNc1nc2c(c(=O)n(Cc3cccc(Cl)c3)c(=O)n2C)n1C | inactive: 1.25%
CC(=O)c1cccc(NC(=O)Cc2ccc(NC(=O)N3CCCCc4ccccc43)cc2)c1 | inactive: -9.82%
COc1ccc(S(=O)(=O)N(CC(=O)NCCSc2ccccc2)c2ccc(C)cc2)cc1 | inactive: -20%
CCCCNc1oc(-c2ccc(COc3ccccc3C)o2)nc1C#N | inactive: -9%
CCOC(=O)c1cc(-c2ccccc2)n(CCC(=O)NCCc2cccc(C)c2)c1C | inactive: -9.22%
COc1ccc(S(=O)(=O)NCCc2sc3nc(-c4ccc(C)cc4)nn3c2C)cc1C | inactive: -12.6%
COC(=O)c1ccc(NC(=O)C(=O)NCC(c2cccnc2)N2CCN(c3ccccc3)CC2)cc1 (stereo unspecified) | inactive: 3.76%
CCCCN1CCCc2cc(CN(CCCN3CCOCC3)C(=O)Nc3ccc(CC)cc3)ccc21 | inactive: -20.3%
CCOC(=O)c1c(-c2ccc(OC)c(OC)c2)csc1NC(=O)c1ccc(C)cc1 | inactive: -15.9%
O=C(NCc1ccc(F)cc1)c1cc2cccc3c2n1CCS3 | inactive: -8.39%
O=C(O)c1cccc(NC(=O)c2cc3cc(Br)cc(Br)c3oc2=O)c1 | inactive: -3.23%
COc1cc2c(cc1OC)C(COc1ccc3c(C)cc(=O)oc3c1)N(C(=O)Cc1ccccc1)CC2 (stereo unspecified) | inactive: -5.53%

Structure (SMILES) | activation
COC(=O)c1cc2sccc2n1CC(=O)Nc1ccc(C)cc1C | inactive: -27.6%
Cc1ccccc1NC(=O)c1nc(S(C)(=O)=O)ncc1N(Cc1ccco1)Cc1sccc1C | inactive: -11.4%
Cc1ccccc1OCC(=O)Nc1ccc(C(=O)OCc2cc(=O)n3ccsc3n2)cc1 | inactive: -15.6%
Cc1ccc(-c2nc(NC(=O)CSc3ccc4ccccc4n3)ns2)cc1 | inactive: -7.94%
CCN(C(=O)CCc1nc(-c2ccc(C)cc2)no1)c1cccc(Cl)c1 | inactive: -15.3%
CCOc1ccccc1C(=O)NC1(C(F)(F)F)C(=O)Nc2c1c(=O)[nH]c(=O)n2-c1ccccc1 (stereo unspecified) | inactive: -25.1%
COc1cccc(CNC(=O)c2ccc3nc(-c4ccccc4)c(-c4ccccc4)nc3c2)c1OC | inactive: -8.21%
Cc1cc(C)c(Cn2c3ccccc3c3cnn(CC(=O)NCCC4=CCCCC4)c(=O)c32)c(C)c1 | inactive: -3.74%
Cc1ccc(S(=O)(=O)c2cn(Cc3ccccc3)c3cc(N4CCCC4)c(F)cc3c2=O)cc1 | inactive: -7.8%
[O-][n+]1cccc(/C(Cl)=N/OC[C@@H](O)CN2CCCCC2)c1 | inactive: -11.3%
Cc1ccc(NC(=O)Cn2nnc(C(=O)NCCc3ccccc3)c2N)cc1 | inactive: -5.93%
O=C(NCc1ccc(Cl)cc1)c1ccc2c(c1)NC(=O)C(CS(=O)(=O)Cc1ccc(F)cc1Cl)N2 (stereo unspecified) | inactive: -14.2%
Clc1ccc(-c2csc(-c3nc(-c4ccc(Br)s4)cs3)n2)cc1 | inactive: -8.65%
COc1ccc(Nc2nnc(-c3ccc(C)c(S(=O)(=O)NCc4nc5ccccc5[nH]4)c3)c3ccccc23)cc1 | inactive: -13.1%
CCC(C)Sc1oc(-c2ccco2)nc1S(=O)(=O)c1ccc(Cl)cc1 (stereo unspecified) | inactive: -8.85%
CCc1ccc(NC(=O)C2CCCN(S(=O)(=O)c3cccc4nsnc34)C2)cc1 (stereo unspecified) | inactive: -9.14%
COc1cccc(NC(=O)CCc2nnc3n(Cc4ccccc4Cl)c(=O)c4ccccc4n23)c1 | inactive: -11.3%
Cc1ccc(NC(=O)c2c(C)nc3sc(C(=O)Nc4ccc(F)cc4)c(N)c3c2-c2ccc(Cl)cc2)c(C)c1 | inactive: -17.4%
Cc1ccc(Nc2c(-c3ccc(N4CCOCC4)cc3)nc3cccc(C)n23)cc1 | inactive: -43.7%
O=C1CC(c2nnc(Cc3c(F)cccc3Cl)o2)CN1c1ccccc1 (stereo unspecified) | inactive: -2.32%
Cc1cccc(CN2C(=O)c3ccccc3S(=O)(=O)c3ccc(C(=O)N(C)Cc4ccccc4)cc32)c1 | inactive: -4.74%
CCOC(=O)C(O)c1ccccc1 (stereo unspecified) | inactive: -6.72%
CCOC(=O)c1ccc(NC2(c3ccccc3)C(=O)c3ccccc3C2=O)cc1 | inactive: -11.7%
Cc1ccc(-c2nnc3ccccc3c2C(=O)Nc2ccc(C)c(F)c2)cc1 | inactive: 1.96%

Structure (SMILES) | activation
COc1ccccc1C(=O)Nc1nnc(S(=O)(=O)N2CCN(c3ccc(F)cc3)CC2)s1 | inactive: -1.1%
CCOC(=O)c1ccc(NC(=O)c2sc3ccccc3c2Cl)cc1 | inactive: -8.14%
CCOc1ccccc1C(=O)Nc1ccc(-n2nncc2-c2ccccc2)cc1 | inactive: -21.1%
COc1ccccc1NC(=O)CN(c1cc(C)cc(C)c1)S(=O)(=O)c1c(C)[nH]c(=O)[nH]c1=O | inactive: -14.4%
CCc1nnc(SCc2nc(-c3cccc(Cl)c3)oc2C)c2cc3sc(C)cc3n12 | inactive: -9.75%
COc1cc(OC)c(NS(=O)(=O)c2cc3c(cc2C)N(C(C)=O)CCO3)cc1Cl | inactive: -10.8%
COc1ccc(Cl)cc1NC(=O)CCn1c(=O)c2cccn2c2ccccc21 | inactive: -10.8%
CN(C)c1ccc(CNC(=O)C2CCCN(S(=O)(=O)c3ccc4c(c3)CCCC(=O)N4)C2)cc1 (stereo unspecified) | inactive: 2.79%
Cc1ccc(C)c(Cn2c(=O)cc(C(F)(F)F)c3c(C)nn(C)c32)c1 | inactive: -12.2%
Cc1ccccc1C(=O)NCc1nc(-c2ccc(Cl)cc2)no1 | inactive: -3.22%
Cc1cccc(NC(=O)Cn2nnc(C(=O)NCc3cccs3)c2N)c1 | inactive: -4.55%
NC(=O)c1c(NC(=O)c2cc(-c3ccc(F)cc3)on2)sc2c1CCCC2 | inactive: -12.6%
CCC(C(=O)Nc1ccc(C(C)C)cc1)n1nc(C)n2c(cc3cc(C)ccc32)c1=O (stereo unspecified) | inactive: -5.15%
CCCCNC(=O)CSc1nnc(C)c2c(C)n(-c3ccccc3)nc12 | inactive: -14.9%
CC1CCN(S(=O)(=O)c2ccc3c(c2)CCC(=O)N3CC(=O)Nc2cccc(C#N)c2)CC1 | inactive: -14.8%
Cc1ccc(Cn2c(C)c(CNCCCc3ccccc3)c(C(=O)O)c2C)cc1 | inactive: -18.4%
O=C(NCc1ccccc1)c1ccc(CSc2nc3cccnc3n2Cc2ccccc2F)cc1 | inactive: -6.84%
Cc1ccc(-c2cc3c(n2-c2ccc(C)cc2)CC(C)(C)CC3=O)cc1 | inactive: -16.3%
CCC1CN(C(=O)N2CCC(C(=O)NCc3ccccc3C)CC2)c2ccccc2O1 (stereo unspecified) | inactive: -1.06%
Cc1ccc(-c2noc(CNC(=O)c3ccccc3)n2)cc1 | inactive: -15.4%
CC(C)NC(=O)C1CCN(c2nc3ccccc3nc2C(F)(F)F)CC1 | inactive: -12.7%
Cc1ccc(C2=NN(CC(=O)NCCN(CC(C)C)CC(C)C)C(=O)CC2)cc1 | inactive: -6.17%
COc1ccc(OCC(=O)Nc2cccc(-c3nc4ccccc4s3)c2C)cc1 | inactive: -16.2%
O=C(NCCOCCn1c(=O)oc2ccccc21)Nc1ccc(F)cc1 | inactive: -20.7%

Structure (SMILES) | activation
Cc1ccc(NC(=O)C2CCN(S(=O)(=O)c3c(C)noc3/C=C/c3ccco3)CC2)cc1C | inactive: -16.9%
CC(C)N(Cc1ccccc1)C(=O)CCS(=O)(=O)c1ccc2c(c1)oc(=O)n2C | inactive: -11%
Cc1cc2c(cc1S(=O)(=O)N(CCN(C)C)Cc1ccco1)OCC(=O)N2 | inactive: 2.11%
Cc1ccc(S(=O)(=O)c2cn(C)c3cc(N4CCCC(C)C4)c(F)cc3c2=O)c(C)c1 (stereo unspecified) | inactive: -15.3%
Cc1nc(N2CCCC2)ncc1C(=O)Nc1ccc(F)cc1F | inactive: -2.54%
COc1ccccc1OCC(=O)Nc1nc(-c2ccc(Br)cc2)ns1 | inactive: -1.02%
Cc1ccc(-n2ncc3c(N4CCC(Cc5ccccc5)CC4)ncnc32)cc1 | inactive: -6.31%
CC(=O)O[C@@H]1CC2C3CCc4cc(OC(=O)c5ccccc5)ccc4C3CCC2(C)[C@H]1OC(C)=O (stereo partly specified) | inactive: -11.8%
Cc1c(Cl)cccc1NC(=O)Cn1cnc2nc3c(cc2c1=O)CCCC3 | inactive: -27.2%
CC(C)(C)CC(=O)NC1CC(=O)N(c2ccc3c(c2)OCCO3)C1 (stereo unspecified) | inactive: -12.7%
O=C(c1ccc2c(c1)N(Cc1ccccc1F)C(=O)c1ccccc1S2=O)N1CCOCC1 (stereo unspecified) | inactive: -5.83%
Cc1ccc(CN2CCc3nc(N4CCN(C)CC4)ncc3C2)s1 | inactive: -11.9%
COc1ccc2c(c1)c1c(c(=O)n(-c3ccccc3)c(=O)n1CC(=O)Nc1ccc(C)c(C)c1)n2C | inactive: -11.1%
CN(Cc1ccccc1)S(=O)(=O)c1nnc(NC(=O)c2ccccc2)s1 | inactive: -17.6%
Cc1cccc(N(C)C(=O)CSc2nc3ncccc3o2)c1 | inactive: -19.1%
Cc1ccc2c(c1)cc1c(=O)n(CC(=O)N3CCCCC3)nc(C)n12 | inactive: -20.9%
CCc1ccc(C(=O)c2cn(CC(=O)Nc3ccc(C)c(C)c3)c3ccccc3c2=O)cc1 | inactive: 12.7%
O=C(NCC1CCCO1)c1c[nH]c2ccc(S(=O)(=O)Nc3cccc(C(F)(F)F)c3)cc2c1=O (stereo unspecified) | inactive: -12.5%
N#Cc1ccc(CSc2nc3c(c(=O)[nH]2)CCCC3)cc1 | inactive: -8.01%
Cc1cccc(N(C)C(=O)CCNS(=O)(=O)c2ccc3c(c2)CCN3C(=O)C2CC2)c1 | inactive: -44%
COc1cc(C(CC(=O)NCCC(C)C)N2Cc3ccccc3C2=O)cc(OC)c1OC (stereo unspecified) | inactive: -19.1%
COc1cc(NC(=O)CN2CCN(CC(=O)Nc3ccc(F)cc3)CC2)cc(OC)c1 | inactive: -1.42%
O=C(Nc1c(C(=O)Nc2ccccc2F)oc2ccccc12)c1cc2ccccc2o1 | inactive: -9.02%
Cn1ncc2c(Nc3cccc(F)c3)ncnc21 | inactive: 2.99%
